Laboratory results as given in patent US20070087411A1 (Regeneron, published 2007).

Molecular target: T1, biotinylated IGF-1 (GroPep) (Homo sapiens (Human), UniProt P05019 in part, Biotinylated. The site or sites and the number of biotins are not stated and are not carried in the letters.)
T1 construct: Added at 1 ug/ml to IGF trap molecules captured on anti-hFc antibody
Experiment: ELISA: trap captured on anti-hFc antibody, biotinylated IGF-1 at 1 ug/ml, streptavidin-HRP; Kd fitted with Prism
Procedure: In vitro binding activity of the fusion polypeptides. Wells were coated with 2 ug/ml of anti-hFc antibody (Pierce) overnight at 4° C. and blocked with PBS with 05% Tween and 10% BSA (PBST). IGF trap molecules were added at different dilutions. After 1 hr at room temperature, the wells were washed 4× with PBST and biotinylated IGF-1 (GroPep) added at 1 ug/ml. Streptavidin HRP (0.2 ug/ml) in PBST was added and developed for 20 min. Kd was determined using standard techniques using Prism software from Graph Pad™.

T1 sequence (P05019 49-118 limits assumed): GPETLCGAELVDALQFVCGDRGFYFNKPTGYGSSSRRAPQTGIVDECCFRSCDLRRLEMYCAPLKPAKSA

B1: hIGFR (1-489).hFc.CT.hFc.CT (Fc fusion)
chain: EICGPGIDIRNDYQQLKRLENCTVIEGYLHILLISKAEDYRSYRFPKLTVITEYLLLFRVAGLESLGDLFPNLTVIRGWKLFYNYALVIFEMTNLKDIGLYNLRNITRGAIRIEKNADLCYLSTVDWSLILDAVSNNYIVGNKPPKECGDLCPGTMEEKPMCEKTTINNEYNYRCWTTNRCQKMCPSTCGKRACTENNECCHPECLGSCSAPDNDTACVACRHYYYAGVCVPACPPNTYRFEGWRCVDRDFCANILSAESSDSEGFVIHDGECMQECPSGFIRNGSQSMYCIPCEGPCPKVCEEEKKTKTIDSVTSAQMLQGCTIFKGNLLINIRRGNNIASELENFMGLIEVVTGYVKIRHSHALVSLSFLKNLRLILGEEQLEGNYSFYVLDNQNLQQLWDWDHRNLTIKAGKMYFAFNPKLCVSEIYRMEEVTGTKGRQSKGDINTRNNGERASCETG[letters of human IgG1 Fc not shown]ARAVFENFLHNSIFVPRPETG[letters of human IgG1 Fc not shown]ARAVFENFLHNSIFVPRPE
notes: Self-associating construct with two Fc parts; also called hIGFIR(1-489).hFc.CTP.hFc.CTP; IGF trap molecule
- Kd: 2 nM
